The supplement of paper PMC10369915
This is one part of the list. Cut-off read from the data, not from the text of the source: active = 3.2 or more and inactive = the rest. The signal is at background level for most entries.

Key:
Test in all cases: enrichment score (SH2-bound / input frequency) (ratio); bacterial display of known human phosphotyrosine sites (pTyr-Var adds point mutants) read by sequencing; higher = stronger binding; tyrosines were phosphorylated by kinases first
Details in all cases: peptide library: pTyr-Var
SHP2 C-SH2 domain E139D = target: SHP2 C-SH2 domain E139D
[1] = target: SHP2 C-SH2 domain wild-type
SHP2 N-SH2 domain L43F = target: SHP2 N-SH2 domain L43F
SHP2 N-SH2 domain T42A = target: SHP2 N-SH2 domain T42A
SHP2 N-SH2 domain T52S = target: SHP2 N-SH2 domain T52S
[2] = target: SHP2 N-SH2 domain wild-type
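Note: displayed peptides selected on beads carrying the immobilized SH2 domain, with library peptides lacking any tyrosine serving as negative controls.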

Row | Binder | enrichment score (SHP2 C-SH2 domain E139D) | enrichment score [1] | enrichment score (SHP2 N-SH2 domain L43F) | enrichment score (SHP2 N-SH2 domain T42A) | enrichment score (SHP2 N-SH2 domain T52S) | enrichment score [2]
1 | STSYDYCRVPM [BST2_Y8] | inactive: 0.78 | inactive: 0.685 | inactive: 0.66 | inactive: 0.6 | inactive: 0.497 | inactive: 1.03
2 | WVFNHYRCIIW [BRCA2_Y2624_W2626C_YF] | inactive: 2.24 | inactive: 2.93 | inactive: 2.57 | inactive: 2.26 | inactive: 2.68 | inactive: 2.02
3 | RKLVDYNSARH [BIN1_Y150_D151N] | inactive: 0.638 | inactive: 0.54 | inactive: 0.363 | inactive: 0.382 | inactive: 0.508 | inactive: 0.869
4 | FSTPPYLLEAA [BRIP1_Y921_S919P_YF] | inactive: 0.848 | inactive: 0.826 | inactive: 0.838 | inactive: 0.921 | inactive: 0.853 | inactive: 1.03
5 | CKLVDYDSARH [BIN1_Y150_R145C] | inactive: 0.584 | inactive: 0.72 | inactive: 0.625 | inactive: 0.698 | inactive: 0.614 | inactive: 0.79
6 | VTSLKYSTSPY [BRIP1_Y916] | inactive: 0.646 | inactive: 0.558 | inactive: 0.654 | inactive: 0.455 | inactive: 0.596 | inactive: 0.781
7 | KPPPTYESEEE [BRD4_Y599] | inactive: 0.639 | inactive: 0.522 | inactive: 0.431 | inactive: 0.344 | inactive: 0.485 | inactive: 0.508
8 | VTSLKYSTSPF [BRIP1_Y916_YF] | inactive: 0.996 | inactive: 0.751 | inactive: 0.788 | inactive: 0.732 | inactive: 0.776 | inactive: 0.687
9 | QLFGAYLRIHA [BSCL2_Y213_YF] | inactive: 2.84 | inactive: 3.03 | inactive: 2.53 | inactive: 2.17 | inactive: 2.4 | inactive: 2.48
10 | KPPPSYESEEE [BRD4_Y599_T598S] | inactive: 0.36 | inactive: 0.521 | inactive: 0.512 | inactive: 0.606 | inactive: 0.361 | inactive: 0.728
11 | YQLPYYNMVPS [BMPR1A_Y458] | active: 3.5 | active: 3.63 | active: 3.99 | active: 5.21 | active: 4.68 | inactive: 3.09
12 | QLYGPYLRIHA [BSCL2_Y213_A212P] | inactive: 1.55 | inactive: 1.89 | inactive: 2.13 | inactive: 1.95 | inactive: 2.06 | inactive: 1.35
13 | TRLAQYDSNSK [BMX_Y216_S212R] | inactive: 0.623 | inactive: 0.713 | inactive: 0.64 | inactive: 0.433 | inactive: 0.641 | inactive: 0.614
14 | GVIRHYVVCST [BTK_Y334] | inactive: 0.821 | inactive: 0.764 | inactive: 0.744 | inactive: 0.766 | inactive: 0.803 | inactive: 0.892
15 | GIMEEYQLPFF [BMPR1A_Y453_V450M_YF] | inactive: 1.25 | inactive: 0.936 | inactive: 1.14 | inactive: 0.758 | inactive: 0.864 | inactive: 1.18
16 | FDDDDYDMDFV [BLM_Y296_T298M] | inactive: 0.538 | inactive: 0.612 | inactive: 0.601 | inactive: 0.631 | inactive: 0.575 | inactive: 0.719
17 | KKYFSYAWPFY [BRDT_Y291_H288Y] | inactive: 2.86 | active: 3.22 | inactive: 2.96 | inactive: 3.03 | active: 3.28 | inactive: 3.02
18 | LDAGEYCVPRG [BEX1_Y43] | inactive: 0.613 | inactive: 0.692 | inactive: 0.66 | inactive: 0.669 | inactive: 0.633 | inactive: 0.928
19 | TSLAQYDSNSK [BMX_Y216] | inactive: 0.584 | inactive: 0.512 | inactive: 0.609 | inactive: 0.564 | inactive: 0.741 | inactive: 0.566
